In all, about 48,000 compounds went through this assay and about 1,200 (2.5%) were called active. Inconclusive results (about 2%) are left out.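 How the source made its calls: active means activation of at least 60% and not above a set upper limit (about 1 call in 100 departs from these limits); inconclusive means activation of 40% to 60%, or above that upper limit; inactive means activation under 40%.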 Some of the results follow.
Each compound was assayed against Probable G-protein coupled receptor 32 (Homo sapiens) (UniProt O75388) (assay: qHTS for Agonists of Human Resolvin D1 Receptor DRV1). Conditions: CHO-K1 GPR32 beta-arrestin PathHunter luminescence, 90 min; at 76.9 µM; hits give high values; zero percent set by DMSO-only wells.
UniProt O75388, sequence (O75388 whole entry, looked up, the tested form may be a part): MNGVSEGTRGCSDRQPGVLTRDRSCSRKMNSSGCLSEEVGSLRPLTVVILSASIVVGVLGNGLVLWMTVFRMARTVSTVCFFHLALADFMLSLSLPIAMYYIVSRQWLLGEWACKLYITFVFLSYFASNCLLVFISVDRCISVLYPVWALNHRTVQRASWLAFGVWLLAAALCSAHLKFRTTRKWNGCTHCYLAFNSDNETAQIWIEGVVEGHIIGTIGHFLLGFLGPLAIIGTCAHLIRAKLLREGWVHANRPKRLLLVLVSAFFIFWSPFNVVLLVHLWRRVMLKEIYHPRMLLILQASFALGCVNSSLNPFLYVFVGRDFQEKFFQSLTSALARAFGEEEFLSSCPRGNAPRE
Outline: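 GPR32 activation in stably transfected CHO-K1 cells, detected as beta-arrestin recruitment by enzyme-fragment complementation. Compound exposure: 90 min, 37 °C.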
Further: 0% is about no effect.

Structure (SMILES)	activation
COc1ccc(N2CCN(Cc3nc4c(c(=O)[nH]c(=O)n4C)n3CC(C)C)CC2)cc1	inactive: -19.9%
Cc1ccc(S(=O)(=O)c2nnn3c2nc(NCCc2ccccc2)c2sccc23)cc1	inactive: -20%
Cc1csc2nc(COc3ccc(NC(=O)COc4ccccc4)cc3)cc(=O)n12	active: 63.9%
CCOC(=O)C1CCN(C(=O)Cn2ncc3c4ccccc4n(Cc4ccc(F)cc4)c3c2=O)CC1	inactive: -19.1%
COc1ccc(S(=O)(=O)c2c(O)c3ccc(C(=O)NCc4ccc(Cl)cc4)cc3[nH]c2=O)cc1	inactive: 5.9%
C=CCc1ccccc1OCc1nc2ccccc2n1CC	inactive: -15%
CCN(Cc1ccccc1)C(=O)Cn1c(=O)n(-c2cccc(C)c2)c(=O)c2c1c1cc(C)ccc1n2C	inactive: -8.37%
CC(=O)N(O)CCCCCNC(=O)CCC(=O)N(O)CCCCCNC(=O)CCC(=O)N(O)CCCCCN	inactive: -0.287%
Cc1ccc2oc3c(c(=O)c2c1)C(c1ccc([N+](=O)[O-])cc1)N(CCCN1CCOCC1)C3=O (stereo not drawn)	inactive: -5.5%
CC(C)(C)C(=O)Cn1c(=O)n(-c2ccccc2)c(=O)c2c3c(sc21)CCC3	inactive: 4.76%
Cc1ccc(NC(=O)CN2C(=O)COc3ccc(S(=O)(=O)NC4CCCC4)cc32)cc1Cl	active: 106%
O=C(CN1C(=O)c2cccnc2Oc2ccc(Cl)cc21)NCCc1ccccc1	inactive: -10.8%
O=C(O)Cc1cccc(-c2cc(CCCCCCc3ccc(O[C@H]4O[C@H](CO)[C@@H](O)[C@H](O)[C@@H]4O)c(-c4cccc(CC(=O)O)c4)c3)ccc2O[C@H]2O[C@H](CO)[C@@H](O)[C@H](O)[C@@H]2O)c1	inactive: -21.5%
Cc1cc(NC(=O)CSc2ncc(C(=O)Nc3ccc(Cl)cc3)c(=O)n2C)no1	inactive: -11%
CCOC(=O)c1c(-c2ccc(C)cc2)csc1NC(=O)c1cc(-c2ccc(C)c(F)c2)on1	inactive: -1.49%
CCCCNc1ccc(-c2nc(-c3ccco3)no2)cc1[N+](=O)[O-]	inactive: 10.7%
Cc1ccc(CNC(=O)CN(c2cccc(C)c2C)S(=O)(=O)c2ccccc2)cc1	inactive: -11.5%
NC(Cc1cccc(-c2ccccc2CP(=O)(O)O)c1)C(=O)O (stereo not drawn)	inactive: -0.422%
CCC(CC)C(=O)Nc1ccc2nc(SCC(=O)N3CCc4ccccc43)sc2c1	inactive: 23.5%
Cn1c2ccccc2c2cnn(CC(=O)N3CCN(c4cccc(C(F)(F)F)c4)CC3)c(=O)c21	inactive: 13.3%
Cc1cccc(N2CCN(S(=O)(=O)c3cc(Cl)ccc3Cl)CC2)c1C	inactive: -9.27%
CC(=O)c1cccc(NC(=O)C2CCCN(C(=O)c3cnn(-c4ccccc4)c3-n3cccc3)C2)c1 (stereo not drawn)	inactive: 4.49%
CCOc1ccc(C(=O)Nc2cccc(NC(=O)c3ccc(C(C)(C)C)cc3)c2)cc1Br	inactive: 15.1%
O=C(c1ccc2c(c1)N(Cc1ccc(F)cc1)C(=O)c1ccccc1S2(=O)=O)N1CCN(Cc2ccccc2)CC1	inactive: 10.7%
Cc1ccc(-c2ccccc2C#N)cc1	inactive: -44.3%
COc1ccc(-c2nc(SCC(=O)Nc3ccc4c(c3)OCCO4)c(-c3ccc(F)cc3)[nH]2)cc1OC	inactive: -21.4%

Structure (SMILES)	activation
COc1ccc(CC(=O)NCc2ccc3c(c2)CCN3C(C)=O)cc1	inactive: -19.9%
CC1=C(C(N)=O)C(c2ccc(F)cc2)n2nc(-c3ccccc3Cl)nc2N1 (stereo not drawn)	inactive: -19%
COc1ccc(C(=O)NNc2ncnc3c2cnn3-c2ccc(C)c(Cl)c2)cc1	inactive: 7.89%
COc1ccc(NC(=O)c2c(NC(=O)c3ccncc3)sc3c2CCC(C(C)(C)C)C3)cc1 (stereo not drawn)	active: 65.7%
COc1cccc(Cn2c(=O)n(CCc3ccccc3)c(=O)c3c2c2cc(OC)ccc2n3C)c1	inactive: -25.9%
Cc1ccc(Cl)cc1NC(=O)C1CCN(S(=O)(=O)c2cccc3nonc23)CC1	inactive: 45%
CCOc1ccc(N(CC(=O)Nc2ccccc2CC)S(=O)(=O)c2c(C)noc2C)cc1	inactive: -19.5%
CC(=O)SC[C@@H](Cc1ccccc1)C(=O)NCC(=O)OCc1ccccc1	inactive: -36.3%
COc1cc(NC(=O)C(Cc2ccccc2)NS(=O)(=O)c2cccc3nsnc23)cc(OC)c1 (stereo not drawn)	inactive: -34%
Cc1cccc(NC(=O)CSc2nc3ccccc3nc2N2CCCCC2)c1C	inactive: -3.18%
O=C(Cn1ccn(-c2ccc(F)c(F)c2)c(=O)c1=O)NCCc1ccccc1	inactive: -10%
COc1ccc(Br)cc1CNC(=O)c1ccc2c(c1)nc1n2CCC(C)C1 (stereo not drawn)	inactive: -17.5%
CCCCNc1nc(Oc2ccc(=O)n(C)n2)nc(N2CCOCC2)n1	inactive: 13.4%
Cc1cc(C)cc(NC(=O)c2cc(S(=O)(=O)N3CCC(C)CC3)cn2C)c1	inactive: 4.19%
CC(=O)c1cccc(NC(=O)CCc2c(C)nc3c(c(C)nn3-c3ccccc3)c2C)c1	inactive: 40.3%
COc1ccc(C(=O)c2c(N)c(-c3nc(-c4ccc(OC)cc4)cs3)c3ccccn23)cc1	inactive: 3.06%
O=C(CCC1N=C2c3ccccc3N=C(SCc3cccc(Cl)c3)N2C1=O)N1CCN(c2ccccc2)CC1 (stereo not drawn)	inactive: -28.9%
CCOc1ccc(-c2cc3c(=O)n(CC(=O)Nc4cc(F)ccc4C)ccn3n2)cc1	inactive: -4.22%
Cc1cc(C)c2c(=O)cc(C(=O)Nc3c(C)n(C)n(-c4ccccc4)c3=O)oc2c1	inactive: 4.22%
N[C@H](CO)C(=O)O	inactive: -1.34%
CCn1nc(-c2ccccc2)c(-c2ccccc2)c(C(=O)Nc2ccccc2C#N)c1=O	inactive: -19.2%
COc1cc2[nH]c(=O)n(CCC(=O)N3CCN(c4ccc(Cl)cc4)CC3)c(=O)c2cc1OC	inactive: -0.219%
Cc1cc(C)c(/C=C/c2onc(C)c2S(=O)(=O)N2CCC(C(=O)NCc3ccccc3Cl)CC2)c(C)c1	inactive: 0.0655%
COc1cc(OC)c(OC)cc1/C=C/c1nc2cc3ccccc3cc2c(=O)n1-c1ccc(F)c(Cl)c1	inactive: -5.58%
O=C(c1cc(-c2ccccc2O)on1)N1CCCCC1	inactive: -11.5%
CCc1c(C)nc(SCc2nc(-c3ccccc3)no2)[nH]c1=O	inactive: 2.12%

Structure (SMILES)	activation
Cc1cc2nc(-c3cccc(NC(=O)C(C)C)c3C)oc2cc1C	inactive: 12.3%
COc1cc(S(N)(=O)=O)cc(C(=O)O)c1OC	inactive: -5.17%
CCN(CC)C(=O)c1sc2c(c1C)c(=O)n(CCc1ccccc1)c(=O)n2Cc1ccc(F)cc1Cl	inactive: -13%
CCOc1ccc(C(=O)Nc2ccc3nn(-c4ccc(OC)c(Cl)c4)nc3c2)cc1	inactive: -7.11%
O=C(c1ccc2c(c1)N(Cc1ccccc1F)C(=O)c1ccccc1S2(=O)=O)N1CCN(c2ccccc2F)CC1	inactive: -5.91%
CCN[C@H]1C[C@H](C)S(=O)(=O)c2sc(S(N)(=O)=O)cc21	inactive: -18.7%
Cc1ccc(OCC(=O)Nc2cccc(-c3nc4ccccc4o3)c2C)cc1C	inactive: -1.4%
COc1ccc2cc(-c3nc(Cl)c4c5c(sc4n3)CC(C)CC5)c(=O)oc2c1 (stereo not drawn)	inactive: -14.3%
O=C(Cn1c(=O)n(-c2cccc(Cl)c2)c(=O)c2sc3ccccc3c21)NC1CCCCC1	inactive: -8.04%
COc1ccccc1NC(=O)c1c(NC(=O)COc2ccccc2)sc2c1CCCCC2	inactive: 1.05%
CNC(=O)C1CCC(Cn2c(=O)c3sccc3n(CC(=O)NCc3ccc(OC)cc3)c2=O)CC1 (stereo not drawn)	inactive: -14.9%
O=C(CSCc1ccc(F)cc1)N1CCN(c2ccc(Cl)cc2)CC1	inactive: -3.13%
Clc1ccc(CN2CCC(CNc3ncnc4onc(-c5ccc(Cl)cc5)c34)CC2)cc1	inactive: 37%
CC(C)CC(=O)n1nc(-c2cccnc2)nc1NCc1ccc(F)cc1	inactive: -30.9%
Cc1ccc(NC(=O)CCCn2c(=O)c3cccn3c3ccccc32)cc1C	inactive: -14.7%
COCCCNC(=O)c1ccc(-n2c(-c3ccccc3)cc3c2CCCC3)cc1	inactive: -21.1%
O=C(OCc1cc(=O)n2nc(C3CCCCC3)sc2n1)c1ccccc1Cl	inactive: 20.1%
COc1cccc(-c2nnc(SCC(=O)N3CCC(C)CC3)o2)c1	inactive: -4.76%
Cc1cc(C)n(-c2nc3ccccc3nc2Nc2ccc(Cl)c(C(=O)OC(C)C)c2)n1	inactive: 5.21%
OC[C@H]1O[C@@H]2O[C@H]3[C@H](O)[C@@H](O)[C@@H](O[C@H]4[C@H](O)[C@@H](O)[C@@H](O[C@H]5[C@H](O)[C@@H](O)[C@@H](O[C@H]6[C@H](O)[C@@H](O)[C@@H](O[C@H]7[C@H](O)[C@@H](O)[C@@H](O[C@H]8[C@H](O)[C@@H](O)[C@@H](O[C@H]1[C@H](O)[C@H]2O)O[C@@H]8CO)O[C@@H]7CO)O[C@@H]6CO)O[C@@H]5CO)O[C@@H]4CO)O[C@@H]3CO	inactive: -20.1%
COc1ccc(OCC(=O)OCc2cc(=O)n3nc(-c4cccs4)sc3n2)cc1	inactive: -4.79%
Cc1ccc(CCNC(=O)CCCn2c(=O)c3ccccc3n(Cc3ccccc3C#N)c2=O)cc1	inactive: 7.92%
CCn1cc2c(n1)-c1c(oc(C(=O)Nc3cccc(C)c3C)c1C)CC2	inactive: -13%
Cc1ccc(CNC(=O)CCc2c(C)nc3nc(C)nn3c2C)cc1	inactive: -4.52%
Cc1ccc(OCC(=O)Nc2cccc(OCc3cc(=O)n4cccc(C)c4n3)c2)cc1C	inactive: -14.4%
Cc1ccc(Cl)cc1NC(=O)Cn1c(=O)n(Cc2ccccc2)c(=O)c2oc3ccccc3c21	inactive: -6.42%
